Test results published in the supplement of paper PMC11417369.
± gives the standard deviation of the averaged measurements. The list shows a part of the results.

Each sequence was assayed on PfAP2-I AP2 domain 3 (GST-tagged) (assay: gcPBM binding intensity (ln(normalized median fluorescence intensity)); higher = stronger DNA binding).
Outline: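 Alexa488 anti-GST antibody, scanned at 488 nm, detected GST-tagged P. falciparum DNA-binding domains that had been expressed in E. coli and incubated for 1 h on an Agilent 4 × 180k array. The array carried primer-extended double-stranded 36-bp intergenic genomic probes and negative controls. Binding intensity is the highest Masliner-normalised natural-log median intensity across replicate spots of either orientation of each probe.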

“ATATAAAAAAAAGATGAAAAAAAAAATGAAAGAAAG [CACACA_negctrl_site1266]” and “TTTTTTTTTTTTTACACACACAAAATATTATCTGTA [CACACA_site5378]” are within error of each other in “gcPBM binding intensity (ln)” value: 7.71 ± 0.66 for the first, 8.22 ± 0.6 for the second.

“ATATATATAATATGATGTACATATTTATTTATATAT [XGTACX_site7333]” and “AATGAAATAAAATAAAGTACATATATGTAAAAGTAG [XGTACX_site5650]” are within error of each other in “gcPBM binding intensity (ln)” value: 8.23 ± 0.39 for the first, 8.57 ± 0.54 for the second.

“AATTGAAAAGAATGAAGTACACATTTGATGATACAT [XGTACX_site5182]” and “TACATCTGTAATGTGTGTACATATATGTATATATTT [XGTACX_site1805]” are within error of each other in “gcPBM binding intensity (ln)” value: 7.75 ± 0.75 for the first, 7.82 ± 0.53 for the second.

First: CATAAACTTTTTAACACACACTTATATATATATATA [CACACA_site4747]
Second: AAAAATTCTTTTTCATCTATATGCAGAAAGAAAAAG [CACACA_negctrl_site1201]
The “gcPBM binding intensity (ln)” value of the first is higher: 9.52 ± 0.18 for the first, 7.76 ± 0.45 for the second.

“TAATTTTTATGAAGAAGTACAAAATCTACTATCATA [XGTACX_site4985]” and “CTAAATAAAGTTAACACACACATAATATATATATGT [CACACA_site486]” are within error of each other in “gcPBM binding intensity (ln)” value: 7.39 ± 0.47 for the first, 7.75 ± 0.49 for the second.

“TATATGAAGCTATAGACACACATATAAAAATATAAT [CACACA_site4850]” and “GAATTTATGAACTGTGCATGTAAAAAAAACAACAAA [TGCATGCA_site449]” are within error of each other in “gcPBM binding intensity (ln)” value: 7.47 ± 0.62 for the first, 8.62 ± 0.58 for the second.

“TATAATAATATATATTGTACACACAAAATGGGAAAA [XGTACX_site3911]” and “AGAAATACAAAATAAATATAAGAAACAAAATATTTA [CACACA_negctrl_site780]” are within error of each other in “gcPBM binding intensity (ln)” value: 8.21 ± 0.72 for the first, 7.6 ± 0.48 for the second.

“AAAAGGTTATCAATATGTACATATTTTTTTATTTTT [XGTACX_site3277]” and “TGAAAAATAAATAAATGTACATATATATATATATAC [XGTACX_site7310]” are within error of each other in “gcPBM binding intensity (ln)” value: 7.71 ± 0.75 for the first, 7.87 ± 0.45 for the second.

First: TATTTCATCATATTGTGTACTTAATTTATATAATTA [XGTACX_site5753]
Second: TTTTAATTAAAACACACACACACATATATATATATA [CACACA_site2291]
The “gcPBM binding intensity (ln)” value of the first is lower: 7.97 ± 0.54 for the first, 9.41 ± 0.42 for the second.

Compared with “ATAAAAATATGATCAACACACGATTAAATATTCATA [CACACA_site1495]”, “CATCTAAATTGTAGTTGTACACCTTAATCTTATTAC [XGTACX_site7547]” is higher in “gcPBM binding intensity (ln)” value: 7.49 ± 0.49 for the first, 8.19 ± 0.2 for the second.

First: TATTTTATCATTTGCACACGCACACCGACATAAAAA [CACACA_site4348]
Second: GTATCAAAAGAATACACACACACATACATATATATA [CACACA_site3796]
The “gcPBM binding intensity (ln)” value of the first is higher: 9.64 ± 0.15 for the first, 8.35 ± 0.63 for the second.

“ACTCTCTTATATTAAACACACATATTTATAGGTATA [CACACA_site7302]” and “ATTTTAGAATAAATTTTTTACATTAAAAAACTATTT [CACACA_negctrl_site1414]” are within error of each other in “gcPBM binding intensity (ln)” value: 8.07 ± 0.45 for the first, 7.37 ± 0.54 for the second.
